Publication PMC4242493
Some of the results follow. The list includes weakly bound sequences.

The sequences below were run against MaxL homodimer (UniProt P61244) (assay: universal protein-binding microarray (PBM)). Details: PBS-based mixture, 10 nM His-tagged protein dimer, 2% milk, 200 ng/uL BSA, 50 ng/uL salmon testes DNA, 0.02% TX-100; detection with Alexa 488 anti-His …; high values mean tight binding; most listed sequences are background and not binding sites; double strand, one strand shown.
UniProt P61244, sequence (P61244 whole entry): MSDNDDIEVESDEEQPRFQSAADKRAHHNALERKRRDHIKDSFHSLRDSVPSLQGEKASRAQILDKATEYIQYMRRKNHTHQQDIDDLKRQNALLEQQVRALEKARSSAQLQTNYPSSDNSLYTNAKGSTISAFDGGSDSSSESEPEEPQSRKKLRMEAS

Sequence	binding signal (normalized occupancy)
CAGCATGA	0.106
CCTTCTCC	0.071
GTCAAGCA	0.0776
CATGTTGG	0.0918
AACCTTTG	0.0696
CATACCAA	0.085
ACAAGAGC	0.0748
CCATGCCA	0.0875
CACTGTTA	0.0737
GACCGCAA	0.0683
CCCTGTCG	0.0722
CTATGTTA	0.0812
GATGCTTA	0.0759
CAGTGGCC	0.0653
GACTAGAC	0.0698
CAGTGTGG	0.0854
AGTCATCC	0.0756
GGTCGCTA	0.0713
GGTTACAA	0.0762
GACGCAGA	0.0709
AGCTTAAA	0.0696
ACAACACC	0.0812
CAGCATTA	0.0824
GTACAACA	0.0787
CTATACTA	0.0789

Sequence	binding signal (normalized occupancy)
ACGTTACT	0.0911
ATTTCACC	0.0745
AAAGTGTC	0.0707
GCAGGAAC	0.071
TATGAACA	0.0793
AAGAGATG	0.0789
GGCAAGCC	0.0715
CGCGGCTC	0.073
CCTGTTCG	0.0735
CGGGCGCC	0.0687
GCGTACGA	0.075
ACTATTGG	0.0759
CCTTATCA	0.0784
CCAGCAAA	0.0781
TAACATAA	0.0762
CACCAATA	0.0713
CCACACTA	0.0809
ATAATCTA	0.0826
CCTAGCAG	0.0704
CCTCGGGC	0.0661
TACGGTCA	0.0735
AGTCGTAC	0.0745
ACCGGTGC	0.0722
TATTCAAA	0.0733
AGTATGTA	0.086

Sequence	binding signal (normalized occupancy)
AATATGGT	0.0807
ACCGGAAT	0.0751
CGACTCCA	0.0709
GCTATCTA	0.0739
CCCGGAGA	0.0684
TAAACAGA	0.0719
AGAGTCGA	0.0688
GGACAGCC	0.0684
GAAGAATA	0.0796
ACTGTGAC	0.0707
ACGCCGTA	0.078
ACAAGACG	0.076
ATGAGAGC	0.078
ATATGCAT	0.0949
AGAGGGGG	0.0776
GATCCCTA	0.0747
ACCATCGG	0.0713
ACTACGAT	0.0766
AGAGCGCA	0.073
GCACTGCC	0.07
ATACAAAG	0.0726
CTACAGCC	0.0733
AGCTTATC	0.074
GGGAGAAC	0.0729
ACGTTGCA	0.0788

Sequence	binding signal (normalized occupancy)
GCCTCGAC	0.0728
ATAACTTA	0.081
AAAAATCT	0.0754
AAGTGCAC	0.0774
CGTTGTTC	0.0743
AGTCGCCA	0.0708
AGACAAAC	0.0692
CGTAGGAC	0.0708
AAGACGCG	0.0745
ACGGCTCA	0.0723
GTACTCAC	0.0734
GGGATCAC	0.0823
CGTACGGC	0.0778
ACGGCATC	0.0761
AAAGTTCC	0.074
ATGGAATA	0.0803
ACTATATC	0.0848
ATTCCGGG	0.0703
CCCAGTTA	0.0735
AACGTTCT	0.0733
CGCCCGCA	0.0687
AACGGGCT	0.0686
CAGGGGCG	0.0724
AGCTTCAA	0.075
TCCACAGA	0.0771

Sequence	binding signal (normalized occupancy)
GAGCGGAA	0.0691
CCAGGGAA	0.0806
CCGTGAGC	0.0713
CCCTCAAG	0.0749
CCCGATAG	0.077
ACCTTGCA	0.0711
GTGCAAAA	0.0757
GCCAAACA	0.075
TATAGCAA	0.0828
AGTCTATA	0.0752
GTTGGTGA	0.082
ACAGGTAC	0.0756
ACTTAGAT	0.0793
GTTGTCCA	0.0734
ACGGACGC	0.0716
TCGTCTAA	0.0693
CGGATCTC	0.076
AGGCGGGA	0.075
CGCCCTCC	0.0755
ACCGGCCT	0.073
CAAAGTAA	0.0722
CTGGCCCC	0.0702
CCGTCAAC	0.0656
CCCCCCCA	0.0901
CCTAATTA	0.0783

Sequence	binding signal (normalized occupancy)
GGCCCACC	0.0717
AGGGTTGC	0.0731
ACCTTGAG	0.0742
AACGACTC	0.0713
CTTCTCCA	0.0743
CGGATTCC	0.0695
CCGGGCTC	0.0634
TGATGCAA	0.0767
CTACATAG	0.0805
ACATTAAG	0.0842
AACTGAAG	0.0704
ATTATCGG	0.0741
AGAAATTC	0.0709
GATATGCC	0.0773
ACAGACGA	0.0752
AATGTGGA	0.0903
ATAGACAA	0.0787
ATAATCGA	0.074
ACTTAGAG	0.0744
AAACCACA	0.0814
TCCGGGCA	0.0678
CGATGGAA	0.076
AACTAATA	0.0803
CATCGCCG	0.0697
CCTGCAAC	0.0785

Sequence	binding signal (normalized occupancy)
ATAGAGTG	0.0742
ACCGAAAA	0.072
ATGATTTA	0.079
AAATTATC	0.078
CTACGAAG	0.0698
AGCTACCT	0.0689
CACGCATC	0.0962
ACCCCTCT	0.0728
ATGTCCCG	0.0773
AGGGTCTC	0.0786
CGAGGTTA	0.0789
AGAGCCAC	0.0769
AAAGGGCT	0.0666
AAGGACCC	0.0707
GTATTGTA	0.0817
ATGTATTC	0.0814
TAATCGCA	0.0751
ACATACGA	0.0787
CTGTGTCC	0.0689
CAAGCATC	0.0744
ATTTAGGG	0.0752
GAGGGTGC	0.082
CTCAATCC	0.0714
AGGCATAT	0.0855
TCCCTCGA	0.0734

Sequence	binding signal (normalized occupancy)
ATGTAACA	0.0853
ACATCACT	0.0768
GGCGAACA	0.0765
CTTGGTCC	0.0723
ACCCGCTC	0.0757
CTGTTGTC	0.0733
ACAGAGAA	0.0789
CTTTGCAC	0.075
AAGAGCTT	0.0667
CGACGAGC	0.0684
GGGTCAAC	0.0749
CTACTCCA	0.0773
CGTGGCAC	0.0871
CATATCTC	0.0851
CCCGCCAG	0.0714
ATGTCTAC	0.0813
CCCACTAA	0.0821
GCTATGCA	0.0745
AAGGAAAA	0.0772
ACAAATAA	0.0777
CCTATCAA	0.0786
ACCTCTAC	0.075
ATTGTGAC	0.0766
CATAAACG	0.08
GCCAAGGC	0.0701

Sequence	binding signal (normalized occupancy)
GATGTCGC	0.0759
GGCGCTAA	0.0688
GCATCCCA	0.0903
ACCACTCT	0.075
AGCCCAGG	0.0653
CAAAAGGC	0.0663
GCCGCCCC	0.0703
TCGCGAAA	0.0675
GGACCATA	0.0795
GACTGATA	0.0742
CTCTGGCC	0.0668
AGCGCGCG	0.0841
AGCACCCA	0.0772
AGGCTATG	0.0762
ACGAAACT	0.0701
CTCTGTTC	0.0751
ATAGGCAC	0.0803
AAATACTG	0.0762
GCCCATAC	0.0818
